Results on seven substances are retold here after publication PMC6952393.

Amino acid sequences for entries named in this document (tags omitted). A change or cut given only in a name is not applied to a line headed by its entry.
UniProt O43242: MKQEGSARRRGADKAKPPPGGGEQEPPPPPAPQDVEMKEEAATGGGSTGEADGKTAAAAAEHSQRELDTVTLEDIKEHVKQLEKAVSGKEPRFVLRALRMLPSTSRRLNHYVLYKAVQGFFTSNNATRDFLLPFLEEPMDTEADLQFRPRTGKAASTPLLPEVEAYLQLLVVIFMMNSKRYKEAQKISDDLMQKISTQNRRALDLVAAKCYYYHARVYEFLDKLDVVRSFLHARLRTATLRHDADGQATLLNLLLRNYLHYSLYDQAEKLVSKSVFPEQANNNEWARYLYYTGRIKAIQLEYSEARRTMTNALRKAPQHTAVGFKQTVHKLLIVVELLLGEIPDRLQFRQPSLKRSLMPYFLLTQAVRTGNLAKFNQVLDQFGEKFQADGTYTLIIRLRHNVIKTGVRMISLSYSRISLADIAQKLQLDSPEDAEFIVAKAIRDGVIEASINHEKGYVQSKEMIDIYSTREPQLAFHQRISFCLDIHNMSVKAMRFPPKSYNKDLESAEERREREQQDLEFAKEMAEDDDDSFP
UniProt O75340: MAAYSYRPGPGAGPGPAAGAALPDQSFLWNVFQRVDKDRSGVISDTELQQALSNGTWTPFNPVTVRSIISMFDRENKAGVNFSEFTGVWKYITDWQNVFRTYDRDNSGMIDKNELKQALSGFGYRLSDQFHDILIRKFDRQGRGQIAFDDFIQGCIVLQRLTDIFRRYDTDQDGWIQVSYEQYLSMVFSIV

These are yes or no findings as the source states them, for the method shown. Binding seen in cells or lysates may run through a third protein. Some results given as binding are weak or reduced against the parent protein; the word gives no strength.

The target of assay [1] is GFP-Rpn3 (human) (UniProt O43242). Nature of the assay: co-IP; HEK293T transfected with HA-ALG-2 mutants and eGFP-Rpn3, RIPA lysate; beads of this panel (GFP-Trap or HA antibody) not told.
Assay [2] addresses His-tagged Rpn3 (human) (UniProt O43242). In words: pull-down; His-tag pull-down; E. coli cells with His-Rpn3 and GST-ALG-2 mixed in binding buffer (50 mM Tris-HCl, 500 mM NaCl, pH 8.0), lysed, Ni Sepharose beads, washed with 20 mM imidazole; SDS-PAGE, coomassie blue.
Assay [3] concerns the target HA-Rpn3 (human) (UniProt O43242). In words: co-IP; HEK293T transfected with HA-Rpn3 or HA-ALG-2 for 48 h, RIPA lysate, HA tag antibody and protein A resin overnight at 4 °C; endogenous partner detected by western blot.
For assay [4], the target named is HA-ALG-2 (human) (UniProt O75340). The assay is described as above.
In assay [5] the target is GFP-Rpn3 (human) (UniProt O43242). In words: co-IP; HEK293T co-transfected with GFP-Rpn3 and HA-ALG-2 for 48 h, RIPA lysate, GFP-Trap beads overnight at 4 °C, western blot. In general terms: Immunoblotting shows a protein as a band on a membrane.

“HA-ALG-2 E47D (from UniProt O75340 1-191)”: the binding result in assay [1] is “no binding”.
For “HA-ALG-2 E114D (from UniProt O75340 1-191)”, the binding result in assay [1] was “no binding”.
On to “GST-tagged ALG-2 (from UniProt O75340 1-191)”, for which the binding entry in assay [2] is “binds”.
With “endogenous ALG-2 (HEK293T) (from UniProt O75340 1-191)”, the binding entry in assay [3] was “binds”.
Turning to “endogenous Rpn3 (HEK293T) (from UniProt O43242 1-534)”, the binding result in assay [4] is “binds”.
In the case of HA-ALG-2 (from UniProt O75340 1-191), the binding entry in assay [5] is listed as “binds”.
With “HA-ALG-2 D169A (from UniProt O75340 1-191)”, in assay [1], the binding entry is listed as “no binding”.
